In the antibiotic and cytotoxicity screens of Wong et al. (2023):
The other results are listed elsewhere or left out.

Test system: S. aureus RN4220
Assay: growth inhibition call (relative growth <= 0.2)
Details: 50 µM

Growth inhibition call, inactive:
CC(/C=C/C(=O)NO)=C\c1ccccc1OCc1cn(C[C@@H]2CCCN2S(=O)(=O)c2ccc(C)cc2)nn1
Cc1ccc(S(=O)(=O)N(C)C[C@@H]2Oc3c(NC(=O)C4CC4)cccc3C(=O)N([C@@H](C)CO)C[C@H]2C)cc1
CC(C)(C)OC(=O)C[C@H]1CC=CC[C@H](CC(=O)NCCO)C(=O)N[C@@H](Cc2c[nH]c3ccccc23)COC1=O
C[C@@H]1CN([C@H](C)CO)C(=O)c2cc(NS(C)(=O)=O)ccc2O[C@@H](C)CCCCO[C@H]1CN(C)Cc1ccc(Cl)c(Cl)c1
C[C@@H]1CN([C@H](C)CO)C(=O)c2cc(NS(=O)(=O)c3cn(C)cn3)ccc2O[C@H]1CN(C)Cc1ccncc1
COCC#Cc1cnc2c(c1)C(=O)N([C@@H](C)CO)C[C@@H](C)[C@H](CN(C)C(=O)c1ccc3c(c1)OCO3)O2
CNC(=C[N+](=O)[O-])NCCSCc1ccc(CN(C)C)o1.Cl
COc1ccccc1NC(=O)C[C@H]1CC[C@H]2[C@@H](COc3ccc(NS(C)(=O)=O)cc3C(=O)N2C)O1
C[C@@H]1CN([C@H](C)CO)C(=O)Cc2cc(NC(=O)NC3CCCCC3)ccc2O[C@H]1CN(C)S(C)(=O)=O
COCC(=O)N1C[C@@H](C)[C@H](OC)CN(C)C(=O)c2ccc(NC(=O)c3cc(C)on3)cc2OC[C@@H]1C
C[C@@H]1CN([C@@H](C)CO)C(=O)c2cc(NS(=O)(=O)c3ccc(F)cc3)ccc2O[C@@H]1CN(C)S(=O)(=O)c1ccc(F)cc1
CCCC(=O)Nc1ccc2c(c1)C(=O)N(C)C[C@H](OC)[C@H](C)CN(Cc1ccc(-c3ccccn3)cc1)[C@@H](C)CO2
Cc1ccc(S(=O)(=O)Nc2ccc3c(c2)C(=O)N([C@H](C)CO)C[C@H](C)[C@H](CN(C)Cc2ccc(C(=O)O)cc2)OCCCC[C@H](C)O3)cc1
C[C@@H]1CN([C@H](C)CO)C(=O)c2cc(NS(=O)(=O)c3cn(C)cn3)ccc2O[C@@H]1CN(C)S(=O)(=O)c1cccs1
Cn1c(=O)c2c(ncn2C[C@@H](O)CNc2ccc(Br)cc2)n(C)c1=O
COc1ccc(S(=O)(=O)N(C)C[C@H]2Oc3c(NS(=O)(=O)c4ccccc4)cccc3C(=O)N([C@H](C)CO)C[C@@H]2C)cc1
C[C@@H]1CN([C@@H](C)CO)C(=O)c2cc(NC(=O)c3ccccc3)ccc2O[C@@H](C)CCCCO[C@@H]1CN(C)C(=O)c1ccccc1
COCCNC(=O)C[C@H]1CC[C@@H]2[C@H](COC[C@@H](O)CN2C(=O)Nc2ccccc2OC)O1
C[C@H](CO)N1C[C@H](C)[C@@H](CN(C)S(=O)(=O)c2ccccc2)OCCCC[C@H](C)Oc2ccc(NC(=O)Nc3ccccc3)cc2C1=O
C[C@@H]1CN([C@H](C)CO)C(=O)c2cccc(NS(=O)(=O)c3cn(C)cn3)c2O[C@@H]1CN(C)S(=O)(=O)c1ccccc1
COc1ccc2c3c([nH]c2c1)[C@@H](CO)N(C[C@]13CCN(CC1)C(=O)c1cccnc1)C(=O)c1cccnc1
O=C(C[C@@H]1C[C@@H]2c3cc(NS(=O)(=O)c4ccccc4)ccc3O[C@@H]2[C@H](CO)O1)NCC(F)(F)F
COc1ccc2c3c(n(c2c1)C)[C@@H](CO)N(C[C@]13CN(C1)C(=O)Nc1cccc(c1)F)C(=O)CN1CCOCC1
